{
  "source": "the supplement of paper PMC10126150",
  "note": "Values marked as one replicate rest on one cluster of the flow cell; about a third of the high ones do not repeat.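 Note: ATP exposure 15 min at 22 °C before imaging.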",
  "data": [
    {"system": "ATP", "test": "switch fluorescence ratio, 500 uM ATP over buffer (Cy3 cluster intensity, sum of 5 cycles each) (fold (ratio)); higher = stronger signal-on switching upon ATP binding; sequences stand for … in TCGTCGGCAGCGTCAGATGTGTATAAGAGACAGTTTTTTTTTTTTTTTTTTTTTTTTT…TC", "details": "aptamer strand: ATP DNA aptamer (quencher-CACCTGGGGGAGTATTGCGGAGGAAGG + anchor), 100 nM annealed; ATP concentration: 500 uM; one replicate", "how_it_was_run": "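Clusters with intensities outside 100-1000 RFU were excluded. The remaining Cy3-labelled switching-strand clusters on a modified Illumina MiSeq flow-cell had been annealed to 100 nM quencher-labelled ATP aptamer and imaged in selection buffer, then after 15 min with 500 uM ATP at 22 °C, for five cycles separated by NaOH stripping and re-annealing. The fluorescence ratio, averaged per switch-domain sequence, is each cluster's summed target-cycle Cy3 intensity over its summed buffer-cycle Cy3 intensity.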", "values": [
      {"sequence": "GAATCTTTAG", "switch fluorescence ratio": 1.01},
      {"sequence": "GAATGAGAAA", "switch fluorescence ratio": 0.931},
      {"sequence": "GAATGAGAAC", "switch fluorescence ratio": 1.01},
      {"sequence": "GAATGGAAG", "switch fluorescence ratio": 0.959},
      {"sequence": "GAATGGTTCA", "switch fluorescence ratio": 1.04},
      {"sequence": "GAATGTACG", "switch fluorescence ratio": 0.984},
      {"sequence": "GAATGTCGAC", "switch fluorescence ratio": 1.04},
      {"sequence": "GAATTAGTAA", "switch fluorescence ratio": 0.957},
      {"sequence": "GAATTCCCAA", "switch fluorescence ratio": 1.03},
      {"sequence": "GAATTCGGTT", "switch fluorescence ratio": 0.993},
      {"sequence": "GAATTCTCGA", "switch fluorescence ratio": 0.98},
      {"sequence": "GAATTTGGCG", "switch fluorescence ratio": 1.01},
      {"sequence": "GAATTTTTAA", "switch fluorescence ratio": 0.953},
      {"sequence": "GAATTTTTT", "switch fluorescence ratio": 1.03},
      {"sequence": "GACAAAGCTC", "switch fluorescence ratio": 1.19},
      {"sequence": "GACAAAGTAT", "switch fluorescence ratio": 0.988},
      {"sequence": "GACAAAGTCG", "switch fluorescence ratio": 1.01},
      {"sequence": "GACAACTCGG", "switch fluorescence ratio": 1},
      {"sequence": "GACAAGGGGA", "switch fluorescence ratio": 1.04},
      {"sequence": "GACAAGGTGG", "switch fluorescence ratio": 1.03},
      {"sequence": "GACAAGTGAA", "switch fluorescence ratio": 1.01},
      {"sequence": "GACAATCGGT", "switch fluorescence ratio": 1.03},
      {"sequence": "GACAATGTCC", "switch fluorescence ratio": 1.02},
      {"sequence": "GACACAAAGG", "switch fluorescence ratio": 1.07},
      {"sequence": "GACACCAAGT", "switch fluorescence ratio": 1.02},
      {"sequence": "GACACGAATG", "switch fluorescence ratio": 0.904},
      {"sequence": "GACACGGCGT", "switch fluorescence ratio": 1.05},
      {"sequence": "GACAGAAAGT", "switch fluorescence ratio": 0.993},
      {"sequence": "GACAGAAGCG", "switch fluorescence ratio": 0.992},
      {"sequence": "GACAGAATTC", "switch fluorescence ratio": 0.98},
      {"sequence": "GACAGAGAGG", "switch fluorescence ratio": 1},
      {"sequence": "GACAGATGAG", "switch fluorescence ratio": 0.967},
      {"sequence": "GACAGCACTC", "switch fluorescence ratio": 1.79},
      {"sequence": "GACAGCAGTG", "switch fluorescence ratio": 1.02},
      {"sequence": "GACAGCCGCT", "switch fluorescence ratio": 1.2},
      {"sequence": "GACAGGAGGG", "switch fluorescence ratio": 1.1},
      {"sequence": "GACAGGTTGC", "switch fluorescence ratio": 0.985},
      {"sequence": "GACAGTGTAT", "switch fluorescence ratio": 1.04},
      {"sequence": "GACAGTGTGT", "switch fluorescence ratio": 1},
      {"sequence": "GACATAACCG", "switch fluorescence ratio": 1.08},
      {"sequence": "GACATCCTGC", "switch fluorescence ratio": 0.976},
      {"sequence": "GACATGGGAG", "switch fluorescence ratio": 1.03},
      {"sequence": "GACATGGTGC", "switch fluorescence ratio": 1.21},
      {"sequence": "GACATTATCC", "switch fluorescence ratio": 1.04},
      {"sequence": "GACCAAAGGC", "switch fluorescence ratio": 1.04},
      {"sequence": "GACCAAATAT", "switch fluorescence ratio": 1.01},
      {"sequence": "GACCAAGTT", "switch fluorescence ratio": 1.02},
      {"sequence": "GACCAATCAT", "switch fluorescence ratio": 0.998},
      {"sequence": "GACCATCGCT", "switch fluorescence ratio": 1.04},
      {"sequence": "GACCATGATG", "switch fluorescence ratio": 1.17},
      {"sequence": "GACCCCACCC", "switch fluorescence ratio": 1.24},
      {"sequence": "GACCCCCCGT", "switch fluorescence ratio": 0.977},
      {"sequence": "GACCCGGGGA", "switch fluorescence ratio": 0.998},
      {"sequence": "GACCGCAGCG", "switch fluorescence ratio": 1.05},
      {"sequence": "GACCGCTCTC", "switch fluorescence ratio": 1.64},
      {"sequence": "GACCGGAATC", "switch fluorescence ratio": 2.28},
      {"sequence": "GACCGGGC", "switch fluorescence ratio": 0.966},
      {"sequence": "GACCGGGGGC", "switch fluorescence ratio": 1.06},
      {"sequence": "GACCGTTGAC", "switch fluorescence ratio": 1.11},
      {"sequence": "GACCTAAAAC", "switch fluorescence ratio": 0.98},
      {"sequence": "GACCTAACAA", "switch fluorescence ratio": 1},
      {"sequence": "GACCTAGTTA", "switch fluorescence ratio": 0.966},
      {"sequence": "GACCTCATC", "switch fluorescence ratio": 1.01},
      {"sequence": "GACCTGCTGT", "switch fluorescence ratio": 1},
      {"sequence": "GACCTTGATA", "switch fluorescence ratio": 1.02},
      {"sequence": "GACGAAGTAG", "switch fluorescence ratio": 1.11},
      {"sequence": "GACGAATATA", "switch fluorescence ratio": 1.14},
      {"sequence": "GACGAGTCTA", "switch fluorescence ratio": 1.01},
      {"sequence": "GACGATATAA", "switch fluorescence ratio": 1.18},
      {"sequence": "GACGCAAAGG", "switch fluorescence ratio": 2.33},
      {"sequence": "GACGCATGCC", "switch fluorescence ratio": 2.62},
      {"sequence": "GACGCCAGGC", "switch fluorescence ratio": 1.45},
      {"sequence": "GACGCCTCTG", "switch fluorescence ratio": 1.04},
      {"sequence": "GACGCGGATA", "switch fluorescence ratio": 1.58},
      {"sequence": "GACGCGGGGA", "switch fluorescence ratio": 1.43},
      {"sequence": "GACGCTGCCG", "switch fluorescence ratio": 1.06},
      {"sequence": "GACGGAACAT", "switch fluorescence ratio": 1.11},
      {"sequence": "GACGGAGGAA", "switch fluorescence ratio": 1.38},
      {"sequence": "GACGGATAAG", "switch fluorescence ratio": 0.977},
      {"sequence": "GACGGCGACG", "switch fluorescence ratio": 0.939},
      {"sequence": "GACGGCGGGG", "switch fluorescence ratio": 1.05},
      {"sequence": "GACGGGACAA", "switch fluorescence ratio": 1.3},
      {"sequence": "GACGGGCGCG", "switch fluorescence ratio": 1.01},
      {"sequence": "GACGGGGAGT", "switch fluorescence ratio": 0.97},
      {"sequence": "GACGGGTCGA", "switch fluorescence ratio": 1.02},
      {"sequence": "GACGGTGCGC", "switch fluorescence ratio": 1.1},
      {"sequence": "GACGGTGCTG", "switch fluorescence ratio": 1.07},
      {"sequence": "GACGGTTTGG", "switch fluorescence ratio": 1.05},
      {"sequence": "GACGTAGGCG", "switch fluorescence ratio": 1.11},
      {"sequence": "GACGTCCTTG", "switch fluorescence ratio": 0.995},
      {"sequence": "GACGTCGGGT", "switch fluorescence ratio": 0.949},
      {"sequence": "GACGTCTCTA", "switch fluorescence ratio": 0.992},
      {"sequence": "GACGTGATTT", "switch fluorescence ratio": 1.99},
      {"sequence": "GACGTGCGCC", "switch fluorescence ratio": 1.31},
      {"sequence": "GACGTGTCTC", "switch fluorescence ratio": 1.01},
      {"sequence": "GACGTTAGGA", "switch fluorescence ratio": 0.975},
      {"sequence": "GACGTTCGGG", "switch fluorescence ratio": 1.06},
      {"sequence": "GACGTTGTTG", "switch fluorescence ratio": 0.999},
      {"sequence": "GACTAACCTG", "switch fluorescence ratio": 0.934},
      {"sequence": "GACTAATAAC", "switch fluorescence ratio": 0.996},
      {"sequence": "GACTACGAAT", "switch fluorescence ratio": 1.27},
      {"sequence": "GACTACGACA", "switch fluorescence ratio": 1.19},
      {"sequence": "GACTATGGGT", "switch fluorescence ratio": 0.95},
      {"sequence": "GACTCAACCT", "switch fluorescence ratio": 1.71},
      {"sequence": "GACTCAAGTA", "switch fluorescence ratio": 1.04},
      {"sequence": "GACTCCCAAG", "switch fluorescence ratio": 1.11},
      {"sequence": "GACTCGACGA", "switch fluorescence ratio": 1.1},
      {"sequence": "GACTCGACGT", "switch fluorescence ratio": 1.03},
      {"sequence": "GACTCGTCTG", "switch fluorescence ratio": 0.975},
      {"sequence": "GACTCTGACT", "switch fluorescence ratio": 0.986},
      {"sequence": "GACTGAAAAT", "switch fluorescence ratio": 1.04},
      {"sequence": "GACTGAAGTA", "switch fluorescence ratio": 1.07},
      {"sequence": "GACTGAATGG", "switch fluorescence ratio": 1.01},
      {"sequence": "GACTGACACA", "switch fluorescence ratio": 1.29},
      {"sequence": "GACTGAGATT", "switch fluorescence ratio": 0.965},
      {"sequence": "GACTGATGGA", "switch fluorescence ratio": 1.02},
      {"sequence": "GACTGATTCA", "switch fluorescence ratio": 1.01},
      {"sequence": "GACTGCTAGC", "switch fluorescence ratio": 1.12},
      {"sequence": "GACTGCTGCG", "switch fluorescence ratio": 1},
      {"sequence": "GACTGGACAA", "switch fluorescence ratio": 1.05},
      {"sequence": "GACTGGAGCG", "switch fluorescence ratio": 0.997},
      {"sequence": "GACTGGGGTG", "switch fluorescence ratio": 1.05},
      {"sequence": "GACTGTGGGA", "switch fluorescence ratio": 0.993},
      {"sequence": "GACTGTGGGG", "switch fluorescence ratio": 0.986},
      {"sequence": "GACTGTGTCG", "switch fluorescence ratio": 0.954},
      {"sequence": "GACTTAGAAG", "switch fluorescence ratio": 1.07},
      {"sequence": "GACTTCATAC", "switch fluorescence ratio": 1.78},
      {"sequence": "GACTTCGACT", "switch fluorescence ratio": 1.01},
      {"sequence": "GACTTCGGTG", "switch fluorescence ratio": 0.964},
      {"sequence": "GACTTCGTTT", "switch fluorescence ratio": 1.01},
      {"sequence": "GACTTTAGTC", "switch fluorescence ratio": 1.02},
      {"sequence": "GACTTTCCTT", "switch fluorescence ratio": 1.03},
      {"sequence": "GACTTTCGCC", "switch fluorescence ratio": 1.14},
      {"sequence": "GACTTTGCAA", "switch fluorescence ratio": 6.22},
      {"sequence": "GAGAAAAAGA", "switch fluorescence ratio": 1},
      {"sequence": "GAGAAAATAG", "switch fluorescence ratio": 1.01},
      {"sequence": "GAGAACAGT", "switch fluorescence ratio": 0.981},
      {"sequence": "GAGAACGTTG", "switch fluorescence ratio": 0.976},
      {"sequence": "GAGAAGCCGA", "switch fluorescence ratio": 0.998},
      {"sequence": "GAGAAGCTCA", "switch fluorescence ratio": 0.936},
      {"sequence": "GAGAAGGAAC", "switch fluorescence ratio": 1.04},
      {"sequence": "GAGAATATGG", "switch fluorescence ratio": 1.03},
      {"sequence": "GAGAATGGAT", "switch fluorescence ratio": 1.02},
      {"sequence": "GAGAATTAGA", "switch fluorescence ratio": 1.01},
      {"sequence": "GAGAATTGTT", "switch fluorescence ratio": 0.99},
      {"sequence": "GAGACACAGA", "switch fluorescence ratio": 1.1},
      {"sequence": "GAGACAGCCC", "switch fluorescence ratio": 1.65},
      {"sequence": "GAGACCCTGA", "switch fluorescence ratio": 0.981},
      {"sequence": "GAGACCGTCA", "switch fluorescence ratio": 0.969},
      {"sequence": "GAGACGGGAC", "switch fluorescence ratio": 1.09},
      {"sequence": "GAGACTAGTT", "switch fluorescence ratio": 0.925},
      {"sequence": "GAGACTCTTA", "switch fluorescence ratio": 1.01},
      {"sequence": "GAGAGAGGTA", "switch fluorescence ratio": 0.941}
    ]}
  ]
}
